From ChEMBL document CHEMBL1201862, “PubChem BioAssay data set” (2004)
“And” between values parts separate entries of the source, which are not always exact repeats. Identical values can stand only once.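 The compound was tested at five concentrations on cells cultured in 96-well plates, with a 48-hour exposure period. Abbreviation: GI50, concentration required for 50% inhibition of growth.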 The source made the active and inactive calls. Rule as the data show it: active = GI50 up to about 1.1 µM and inactive = higher.

The molecules below were run on NCI-H322M (assay: NCI-60 cell line screen, 48 h).

SMILES | GI50
O=C(O)c1cc(-c2ccc3cc(O)c(O)cc3c2)ccc1O | inactive: > 12.5 µM
COc1cc(C2C(Cl)C(=O)N2NC(=O)c2ccccc2O)cc(OC)c1OC (stereo not given) | inactive: 3.48 µM
Cn1c2ccccc2n2c(=O)c(-c3ccc(O)cc3)nnc12 | inactive: > 100 µM
Cn1cnc([N+](=O)[O-])c1SCC(=O)O | inactive: > 100 µM
Cc1c(N=C(S)Nc2ccc(Cl)cc2)c(=O)n(-c2ccccc2)n1C | inactive: > 100 µM
N=C(N)SCc1ccc(Cl)c2ccccc12.O=[N+]([O-])c1c(O)c(Cl)cc(Cl)c1Cl | inactive: 12.9 µM
CC(=O)/C=C/c1c[nH]c(=O)[nH]c1=O | inactive: 101 µM
C/C=C1/CN2CC[C@@H]3c4ccccc4N4[C@H](C(=O)OC)[C@H]1C[C@H]2[C@]34/C=C/C1=COC[C@@H]2[C@H]1C[C@H]1c3c(c4ccccc4n3C)C[C@@H]2N1C | inactive: 4.02 µM
C/C(CC1SCCCS1)=C(/C)CC1SCCCS1 | inactive: > 100 µM
Cc1ccc(C(CCO)CCO)nc1 | inactive: > 100 µM
C[C@H](CSC(=O)c1ccccc1)C(=O)N1c2ccccc2C[C@H]1C(=O)O | inactive: > 100 µM
Cc1csc(NCc2ccc(Cl)cc2)n1 | inactive: > 100 µM
Cn1c(=O)c2[nH]c(N=O)nc2n(C)c1=O | inactive: > 100 µM
O=c1[nH]c(=O)n(COCCOCc2ccccc2)cc1Nc1ccccc1 | inactive: > 100 µM
COC(=O)[C@@H]1C[C@@H]2c3ccccc3N(S(=O)(=O)c3ccccc3)[C@@H]2N1C(=O)OC | inactive: > 100 µM
Cc1cc(S(=O)(=O)Nc2nnc3c4ccccc4cnn23)c(S)cc1Cl | inactive: 30.9 µM
CC(C)C1(O)C(=O)N(c2c(F)c(F)c(F)c(F)c2F)C(=S)N1CCSc1ccccc1 (stereo not given) | inactive: 17.9 µM
CCNC(=O)c1cc(/C=C/c2ccc([N+](=O)[O-])o2)nc2ccccc12 | inactive: 66.1 µM
COc1ccc2[nH]c3c(c2c1)[C@H]1CCC(C(C)(C)C)C[C@H]1[C@H]1C(=O)N(c2ccccc2)C(=O)[C@@H]31 (stereo not given in full) | inactive: 45.5 µM
COCn1c(C)c(C)c2c(=O)oc(=O)[nH]c21 | inactive: > 100 µM
CNC(=S)N/N=C1\CC(c2ccccc2)Oc2ccccc21 (stereo not given) | inactive: > 100 µM
COc1ccc(C2NCCc3c2[nH]c2ccccc32)cc1 (stereo not given) | inactive: > 100 µM
COc1ccc2c(c1)Oc1cc(O)ccc1[C@H]2c1ccccc1C(=O)NC(C)c1ccccc1 (stereo not given in full) | inactive: 17.1 µM

SMILES | GI50
COc1ccc(C2SCC(=O)N2NC2=NC(=O)CC(=O)N2)cc1 (stereo not given) | inactive: > 100 µM
O=C1c2ccccc2S(=O)(=O)c2c1cccc2[N+](=O)[O-] | inactive: 2.51 µM
O=C1C=C(Cl)C(=O)C(c2ccc(Cl)cc2)=C1 | inactive: 42.2 µM
CCOC(=O)c1ccc(C(=O)/C(C(=O)OC(C)(C)C)=C2\CCCN2C)n1C | inactive: > 100 µM
Nc1c(/N=N/c2ccc(-c3ccc(/N=N/c4c(O)ccc5cc(S(=O)(=O)O)cc(S(=O)(=O)O)c45)cc3)cc2)c(S(=O)(=O)O)cc2cc(S(=O)(=O)O)c(/N=N/c3ccccc3)c(O)c12 | inactive: > 88.5 µM
COc1ccc(OC)c(/C=C(/C#N)c2ccccc2)c1 | inactive: 36.1 µM
COC(=O)c1c(C#C[Si](C)(C)C)c(C#C[Si](C)(C)C)c(C#C[Si](C)(C)C)c(C#C[Si](C)(C)C)c1C(=O)OC | inactive: > 100 µM
C=C1CC2(OC1=O)c1ccccc1C=Cc1ccccc12 | inactive: 15.7 µM
CCOC(=O)c1c(N)nn2c1cc1cccccc12 | inactive: 34.1 µM
O=C(C#CP(=O)(O)c1ccccc1)c1ccccc1 | inactive: > 100 µM
Oc1cc(Cl)cc2cccnc12 | inactive: 20.2 µM
CN(/N=C(\C(=O)O)c1ccccc1)C1=NCCCN1 | inactive: > 100 µM
CCCCC1(N=[N+]=[N-])C(=O)C2C=CC=C3c4ccccc4N(C1=O)C32 (stereo not given) | inactive: 28.4 µM
Nc1c(S(=O)(=O)c2ccccc2)c2nc3ccccc3nc2n2c1nc1ccccc12 | inactive: > 53.6 µM
CCCCN1C(=O)C2c3[nH]c4ccccc4c3C3CCCCC3C2C1=O.CCCCN1C(=O)C2c3[nH]c4ccccc4c3[C@@H]3CCCCC3C2C1=O (stereo not given) | inactive: 15.6 µM
COc1ccc2c(c1)c1c(n2CCN2CCOCC2)-c2ccccc2CC1 | inactive: 53.5 µM
COc1ccc(/N=N/c2c(-c3c(OC)cc4occc4c3OC)[nH]c(=O)c(C#N)c2C)cc1 | inactive: > 100 µM
O=C(Nc1cc(Cl)ccc1Cl)c1cc2cccc(Cl)c2oc1=O | inactive: > 100 µM
Cc1cccc(C)c1NC(=O)CCC(=O)NC(N)=S | inactive: > 100 µM
N#Cc1nc(CCC(c2nc(C#N)c(N)o2)N2C(=O)c3ccccc3C2=O)oc1N (stereo not given) | inactive: > 100 µM
COc1ccc(-c2c3c([nH]c(=S)c2C#N)CC(C)(C)CC3=O)cc1 | inactive: > 100 µM
C1CCCCC2(CCCCCCCCC3(CCC1)SCCS3)SCCS2 | inactive: > 100 µM
O=C1CC2(CCC3=C(O2)c2ccccc2NC(=O)C3)C(=O)c2ccccc2N1 (stereo not given) | inactive: > 10 µM

SMILES | GI50
C[C@H](C1CC(C)(O)C(C)(O)C(O)O1)[C@H]1CC[C@H]2[C@@H]3[C@@H]4O[C@@H]4[C@@]4(O)CC=CC(=O)[C@]4(C)[C@H]3CC[C@]12C (stereo not given in full) | inactive: > 50 µM
O=c1c(Cc2ccc(Cl)cc2)nnc2sc(-c3ccc(-c4ccc(Cl)cc4Cl)o3)nn12 | inactive: 31.1 µM
CCNc1ncnc2nn[nH]c12 | inactive: > 100 µM
Nc1ccc2c(SCC(=O)Nc3ccccc3-c3ccccc3NC(=O)CSc3c4ccccc4nc4cc(N)ccc34)c3ccccc3nc2c1 | inactive: 25.4 µM
O/N=C(\C(=N/O)Nc1ccc(-c2ccc(NC(=N/O)/C(=N\O)c3ccccc3)cc2)cc1)c1ccccc1 | inactive: 28.4 µM
CC(=O)OCCOCNC(=S)N/N=C/c1ccc([N+](=O)[O-])s1 | inactive: 32.9 µM
O=C1c2cccc3cccc(c23)C(=O)N1CCCNCCCCNCCCN1C(=O)c2cccc3cccc(c23)C1=O | active: 0.116 µM
CCOC(=O)C1(c2ccccc2)CCC(=O)CC1 | inactive: > 100 µM
O=c1c2c3c(sc2nc2n1N=C(c1ccc(Br)cc1)CS2)CCCC3 | inactive: > 100 µM
CC(C)CC1NC(=O)C(C(C)C)NC(=O)CC(C)COC(=O)C(CC(C)C)N(C)C(=O)C(C(C)C)NC(=O)C(C(C)C)OC1=O (stereo not given) | inactive: > 50 µM
CC(C)(C)c1cc(C2COC(c3cc(C(C)(C)C)c(O)c(C(C)(C)C)c3)CO2)cc(C(C)(C)C)c1O (stereo not given) | inactive: > 100 µM
CC(C)CCn1nc(N)c2nc3ccccc3nc21 | inactive: > 100 µM
Cc1cc(C)n(CCNCCn2nc(C)cc2C)n1 | inactive: > 100 µM
CSc1c2c(C)n[nH]c2nn1-c1ccccc1 | inactive: 27.2 µM
COC(=O)C1(CCC(C)=O)CCCCCC1=O (stereo not given) | inactive: > 100 µM
CC(=O)c1ccc(NCN2C(=O)c3ccccc3C2=O)cc1 | inactive: > 100 µM
COc1ccc(N2C(=O)C(=O)N(c3ccccc3[N+](=O)[O-])C2=S)cc1 | inactive: 69.5 µM
CCNc1nc(N)c(C(=O)c2ccc(Cl)cc2)s1 | inactive: 28.6 µM
CCCOc1ccc2sc(NC(=O)c3cc([N+](=O)[O-])cc([N+](=O)[O-])c3)nc2c1 | inactive: 45.9 µM
Nc1ccc2c(c1)Oc1c(F)c(F)cc3c(=O)c(C(=O)O)cn-2c13 | inactive: 43.6 µM
Cc1ccc(N2C(=O)CC(=O)N(NC(=O)C(C)Oc3ccccc3C)C2=S)cc1 (stereo not given) | inactive: > 100 µM
CN(CCCNC(=O)c1nn(C)c2c1Cc1ccccc1-2)CCCNC(=O)c1nn(C)c2c1Cc1ccccc1-2 | inactive: 15.2 µM
Cc1cc(C)c(S(=O)(=O)N(CCCCCCN)OCCCN)c(C)c1 | inactive: 14.9 µM

SMILES | GI50
CCC(=O)NC(OCC1(CC)COC1)(C(F)(F)F)C(F)(F)F | inactive: > 100 µM
CN(C)c1ccc2nc3c(ccc4ccccc43)[o+]c2c1 | inactive: 15.8 µM
O=c1c2ccccc2nc(-c2ccccc2Cl)n1NC1OC(CO)C(O)C(O)C1O (stereo not given) | inactive: > 100 µM
CC1=C(C(=O)Nc2ccccc2C)C(c2ccc(N(C)C)cc2)C(C(=O)Nc2ccccc2C)=C(C)N1 | inactive: 61.5 µM
Cc1cc(S(=O)(=O)n2ccnc2Oc2ccccc2)c(SSc2cc(Cl)c(C)cc2S(=O)(=O)n2ccnc2Oc2ccccc2)cc1Cl | inactive: > 100 µM
O=C(O)C1C2C=CC(O2)C1C(=O)NCc1ccccn1 (stereo not given) | inactive: > 100 µM
N#CC12Cc3cc4c(cc3-c3cccc(c31)CCN2C(=O)c1ccccc1)OCO4 (stereo not given) | inactive: > 100 µM
COc1cc2nc(NCCCCCNC(=O)c3ccco3)nc(N)c2cc1OC | inactive: 24.6 µM
CCN(CC)c1ccc(/N=N/c2ccc([N+](=O)[O-])cc2OC(=O)/C=C/c2ccccc2)c(OC(=O)/C=C/c2ccccc2)c1 | inactive: 1.95 µM
Nc1ccccc1C#CC(=O)c1cccc(C(F)(F)F)c1 | inactive: 16.3 µM
CC(C)(C)OC(=O)N(CCCN)CCCCN | inactive: > 100 µM
c1ccc(N2N=C(c3ccco3)CC2c2ccco2)cc1 (stereo not given) | inactive: > 100 µM
COC1=CCC2=C(CCN(C(=O)C3CC3)C2Cc2ccc(OC)c(O)c2)C1 (stereo not given) | inactive: 57.8 µM
COC(=O)C1=C(O)c2cc(OC)c(OC)c(OC)c2[C@H](c2cc(OC)c(OC)c(OC)c2)C1C(=O)OC (stereo not given in full) | inactive: 86.5 µM
C[C@H]1C(=O)CC[C@]2(C)CCC(C(C)(C)O)CC12O (stereo not given in full) | inactive: > 100 µM
CC1OC(O)C(O)C(O)C1O (stereo not given) | inactive: > 100 µM
COc1ccc(/C=C2\CCCc3ccccc3C2=O)cc1 | active: 0.317 µM
COc1ccc2oc(S(=O)(=O)N3CC(CCl)c4ccc(N)cc43)cc2c1 (stereo not given) | inactive: 1.23 µM
COc1cccc2c1C(=O)c1c(O)c3c(c(O)c1C2=O)C[C@@](O)(C(=O)CO)C[C@@H]3OC1CC(N)C(O)C(C)O1 (stereo not given in full) | active: 463 nM and active: 925 nM
CC1(C)CCC(C)(C)c2cc(C(=O)Nc3ccc(C(=O)O)cc3)ccc21 | inactive: 33.9 µM
C=C1CC(Cn2cc(C)c(=O)[nH]c2=O)(c2ccc(-c3ccccc3)cc2)OC1=O (stereo not given) | inactive: 5.7 µM
